In patent US20070073039A1, “Peptides that inhibit viral infections” (priority 2005, published 2007):
At least one peptide structure holds a part that was inferred or is arguable (an end, a ring closure or a residue). Some entries repeat one wording, which the source may state once for all of them. Some results were stated once for a whole list of compounds, not compound by compound. Some compounds share one range, which may span the group rather than tell each member. No end group written: not given here.

Columns and labels:
Dengue-2 = Dengue-2 infection of Vero cells, Intracellular FACS Assay; type: cell-based; conditions: 20 μM; Vero cells 3 days post-infection; DMSO 41.26
Method: Intracellular FACS Assay: Vero cells were seeded for 24 h pre-infection in 6-well plates. Cells were exposed to Dengue-2 in the presence of increasing concentrations of peptide (or DMSO as control). Viruses and peptide were washed away 2 h post-infection. Cells were taken for intracellular staining 3 days post-infection. Cells were stained with appropriate isotype control, Dengue Env, Dengue capsid or tubulin antibodies. Cells were analyzed by FACS.

HCV [1] = test: HCV focus reduction assay; type: cell-based, Hepatitis C virus (JFH-1); conditions: for Fold Inhibition: inhibition of HCV infection; for Fold Inhibition / % of Mock: peptide approximately 20 μM, Huh-7.5.1 cells, 3 days; for % of Mock: number of HCV foci as % of mock (0.5% DMSO)
Method: To identify peptides that display antiviral activity against HCV infection, the peptide library was screened by an HCV focus reduction assay. The peptides were constituted in 100% DMSO at a final concentration 10 mg/mL, and stored in −20° C. The peptide stock solution was diluted 1:200 to a final concentration approximately 20 μM in complete DMEM growth medium containing 50 focus forming units (ffu) of HCV. The virus-peptide mixture was transferred to Huh-7.5.1 cells at a density of 8000 cells per well in a 96-well plate. After adsorption for 4 hours at 37° C., the inoculum was removed. The cells were washed 2 times, overlaid with 120 μL fresh growth medium and incubated at 37° C. After 3 days of culture, the cells were fixed with paraformaldehyde and immunostained with antibody against HCV nonstructural protein NS5A. The numbers of HCV foci were counted under fluorescent microscopy and the result is expressed as percentage (%) of mock with no peptide treatment but containing solvent 0.5% DMSO.
To determine whether the antiviral activity of peptide 1 is dependent on its primary amino acid sequence, four derivative peptides from peptide 1 were synthesized to a purity >95%. The four derivatives having the same composition of amino acids included (1) the reversed the sequence of peptide 1 (also called retro-peptide); (2) scrambled hydrophobic amino acids; (3) scrambled hydrophilic amino acids; and (4) a derivative in which the aspartic acid residues (D) were replaced with proline residues (P). The antiviral activity of the peptides was examined by HCV focus reduction assay at three peptide concentrations: 18 μM, 6 μM and 2 μM, as described above.

HCV [2] = test: Median effective concentration (EC50) by intracellular HCV RNA RT-QPCR; type: cell-based, Hepatitis C virus (JFH-1); conditions: FIG. 12B-C
Method: To determine the median effective concentration (EC50) of peptide #1, peptide stock solution (3.6 mM in DMSO) was serially 2-fold diluted in DMSO. An aliquot of peptide from each dilution was then diluted 1:100 in complete growth medium and mixed with equal volume of virus supernatant. The virus-peptide mixture was then used to infect Huh-7.5.1 cells (MOI=0.1). After adsorption for 4 hours at 37° C., the virus-peptide inoculum was removed. The cells were washed 2 times, overlaid with 120 μL fresh growth medium and incubated at 37° C. for 3 days. Cells were lysed and subjected to RNA analysis. The HCV RNA transcript level was measured by real time RT-QPCR and normalized to cellular GAPDH levels. The inhibition of HCV infection was calculated by comparing the intracellular HCV RNA transcript between the peptide treatment and solvent control.
To determine the median effective concentration (EC50) of the L- and D-form of peptide #1, peptide stock solution (3.6 mM in DMSO) was serially diluted 2-fold in DMSO. An aliquot of peptide from each dilution was then diluted 1:100 in complete growth medium and mixed with equal volume of virus supernatant. The virus-peptide mixture was then used to infect Huh-7.5.1 cells (MOI=0.1). After adsorption for 4 hours at 37° C., the virus-peptide inoculum was removed. […]

[3] = Circular dichroism (CD) spectroscopy of secondary structure; type: physicochemical; conditions: 50 μM, pH 7.0, 25° C.
HCV [4] = test: Intracellular HCV RNA by real time RT-QPCR after infection of Huh-7.5.1 cells with and without peptide; type: cell-based, Hepatitis C virus (JFH-1); conditions: for HCV RNA fold inhibition 24 h 25 μM / HCV RNA fold inhibition 72 h 25 μM: Huh-7.5.1 cells, MOI 0.1, normalized to GAPDH
Method: To accurately quantify the inhibitory effect of the selected peptides on HCV infection, intracellular HCV RNA was measured after infection by real time RT-QPCR with and without peptide treatment. The peptide stock solution was diluted 1:100 and mixed with equal volume of viral supernatant (propagated from day 18 virus preparation post transfection) to a final concentration approximately 20 μM. The virus with peptide or 0.5% DMSO solvent control was then used to infect Huh-7.5.1 cells at a multiplicity of infection (MOI) of 0.1. After an adsorption for 4 hours at 37° C., the inoculum was removed. The cells were washed 2 times, overlaid with 120 μL fresh growth medium and incubated at 37° C. At the indicated time points, total cellular RNA was isolated by the guanidine thiocyanate method. The HCV RNA transcript level was measured by real time RT-QPCR with the primers 5′—
normalized to cellular GAPDH levels.
To define the antiviral action of peptide #1 (SEQ ID NO:43), the antiviral activity of a series of N-terminal and C-terminal truncations of peptide 1 was analyzed using the focus reduction assay and by measuring the reduction in intracellular HCV RNA as described.

[5] = peptide library screen, approximately 20 μM
[6] = cell culture model of HCV infection

In the case of SWLRDIWDWICEV [^C-13mer], the “% GATED, Dengue α-Capsid (9A7)” value (Dengue-2) is reported as 2.61%.
For DTEDVVCCSMSYSW [Peptide 7741], the “Inhibition of HCV infection” value (HCV [1]; [5]) was 90-100%.
In the case of CTMLVCGDDLVVICESAG [Peptide 2], the “Inhibition of HCV infection” value (HCV [1]; [5]) is reported as 90-100%.
With IFLLALLSCLTVPASAYQ [Peptide 8] the “Inhibition of HCV infection” value (HCV [1]; [5]) was 90-100%.
With YLYGVGSSIASWAIKWEY [Peptide 11] the “Inhibition of HCV infection” value (HCV [1]; [5]) was 90-100%.
For WMMLLISQAEAALENLVI [Peptide 4], the “Inhibition of HCV infection” value (HCV [1]; [5]) was 90-100%.
With ATQTFLATCINGVCWTVY [Peptide 12] the “Inhibition of HCV infection” value (HCV [1]; [5]) was 90-100%.
For GSATLCSALYVGDLCGSV [Peptide 5], the “Inhibition of HCV infection” value (HCV [1]; [5]) was 90-100%.
With IMDMIAGAHWGVLAGIAY [Peptide 9] the “Inhibition of HCV infection” value (HCV [1]; [5]) was 90-100%.
In the case of `CC[C@@H](C)[C@@H](NC(=O)[C@@H](CC(=O)O)NC(=O)[C@@H](CCCNC(=N)N)NC(=O)[C@@H](CC(C)C)NC(=O)[C@@H](Cc1c[nH]c2ccccc12)NC(=O)[C@H](N)CO)C(=O)N[C@H](Cc1c[nH]c2ccccc12)C(=O)N[C@H](CC(=O)O)C(=O)N[C@H](Cc1c[nH]c2ccccc12)C(=O)N[C@@H](C(=O)N[C@H](CS)C(=O)N[C@H](CCC(=O)O)C(=O)N[C@@H](C(=O)N[C@H](CC(C)C)C(=O)N[C@H](CO)C(=O)N[C@H](CC(=O)O)C(=O)N[C@H](Cc1ccccc1)C(=O)N[C@H](CCCCN)C(=O)O)C(C)C)[C@H](C)CC` [D-2022 peptide], the “EC50 values of the L- and D-forms compared” value (HCV [2]) is reported as “virtually identical”, the “α-helical structure by CD spectra” value [3] is reported as “Spectra highly characteristic of amphotropic α-helices” and the “% GATED, Dengue α-Capsid (9A7)” value (Dengue-2) is reported as 1.35%. The 1/3 diluted (HCV [1]; HCV foci, 1/3 of final concentration (6 μM)) was 8 ± 6, the 1/9 diluted (HCV [1]; HCV foci, 1/9 of final concentration (2 μM)) was 10 ± 2 and the No dilution (HCV [1]; HCV foci, final concentration 17-20 μM, MOCK 53 ± 4) was 0 ± 0. For the same molecule, the “Antiviral activity of the D-form” value (HCV [4]; FIG. 12A) was “fully active”.
For TLVFDITKLLLAIFGPLW [Peptide 6], the “Inhibition of HCV infection” value (HCV [1]; [5]) was 90-100%.
In the case of DWICEVLSDFKTWLKAKL [Peptide 13], the “Inhibition of HCV infection” value (HCV [1]; [5]) is reported as 90-100%.
For `CSCC[C@H](NC(=O)[C@H](CO)NC(=O)[C@H](CS)NC(=O)[C@H](CS)NC(=O)[C@@H](NC(=O)[C@@H](NC(=O)[C@H](CC(=O)O)NC(=O)[C@H](CCC(=O)O)NC(=O)[C@@H](NC(=O)[C@H](CC(=O)O)NC(=O)[C@H](C)NC(=O)CNC(=O)[C@H](CO)NC(=O)[C@@H](N)CO)[C@@H](C)O)C(C)C)C(C)C)C(=O)N[C@@H](CO)C(=O)N[C@@H](Cc1ccc(O)cc1)C(=O)N[C@@H](CO)C(=O)N[C@@H](Cc1c[nH]c2ccccc12)C(=O)O` [Peptide 3], the “Inhibition of HCV infection” value (HCV [1]; [6]) was “strongly inhibit HCV infection”, the “Fold Inhibition” value (HCV [1]) was 22.0 fold and the “% of Mock” value (HCV [1]) was 4.5%. The “Fold inhibition of HCV infection” value (HCV [1]; [5]) was “more than ten-fold”, the “Inhibition of HCV infection” value (HCV [1]; [5]) was 90-100% and the “HCV RNA fold inhibition 24 h 25 μM” value (HCV [4]; 24 h) was 75 fold. For the same molecule, the “HCV RNA fold inhibition 72 h 25 μM” value (HCV [4]; 72 h) was 49 fold.
For DIWDWICEVLSDFK [^N-14mer], the “% GATED, Dengue α-Capsid (9A7)” value (Dengue-2) was 12.07%, the “Focus Reduction (72 h)” value (HCV [1]; 72 h, working concentration 18.4-27.5 μM per peptide, Mock 51) was 125 and the “Fold Inhibition on HCV RNA (24 h)” value (HCV [4]; 24 h, working concentration 18.4-27.5 μM per peptide) was 1.0 fold. For the same molecule, the “Fold Inhibition on HCV RNA (72 h)” value (HCV [4]; 72 h, working concentration 18.4-27.5 μM per peptide) was 0.7 fold.
For ALYVGDLCGSVFLVGQLF [Peptide 7], the “Inhibition of HCV infection” value (HCV [1]; [5]) was 90-100%.
With LYGNEGCGWAGWLLSPRG [Peptide 10] the “% GATED, Dengue α-Capsid (9A7)” value (Dengue-2) was 42.41%, the “Inhibition of HCV infection” value (HCV [1]; [6]) was “strongly inhibit HCV infection” and the “Fold Inhibition” value (HCV [1]) was 42.0 fold. The “% of Mock” value (HCV [1]) was 2.4%, the “Fold inhibition of HCV infection” value (HCV [1]; [5]) was “more than ten-fold” and the “Inhibition of HCV infection” value (HCV [1]; [5]) was 90-100%. The “HCV RNA fold inhibition 24 h 25 μM” value (HCV [4]; 24 h) was 9 fold and the “HCV RNA fold inhibition 72 h 25 μM” value (HCV [4]; 72 h) was 11 fold.
